# Measured values taken from PubChem BioAssay AID686978 (National Center for Advancing Translational Sciences (NCATS), 2013).
# Out of some 420,000 compounds screened, about 64,000 (15%) were called active. This list was built around the results that the source calls inconclusive (neither active nor inactive); the mix of calls is not that of the screen. The call rests on the fitted dose curve; in most records, active means well fitted inhibition curve with a large enough effect; inconclusive means small, poorly fitted or top-dose-only effect; inactive means flat fitted curve, though single readings scatter. No potency is given beside an inconclusive call; the fits are too rough.
# Assay: qHTS for Inhibitors of human tyrosyl-DNA phosphodiesterase 1 (TDP1): qHTS in cells in absence of CPT; further: nearly all actives have a fitted effect of over 55% in size
# Details: DT40 Tdp1-/- hTDP1 cells, no CPT, ATP luminescence, 48 h; activity change, negative = growth inhibition: at 46.2 µM (top of the series)
# Procedure, shortened: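 Growth kinetics read by CellTiter-Glo luminescence after ≥48 hr at 37 °C. Cells: DT40 Tdp1-/- stably carrying human TDP1, 400 per well, compound exposure in the absence of CPT (DMSO vehicle).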
# On the % scale 0 is the no-effect control and ±100 the full control effect; potency means the concentration at half of the fitted maximal effect; tags describe the fitted curve by direction and shape.
SMILES,Potency,"activity change, negative = growth inhibition"
COc1cc(C(F)(F)F)c(C(=O)N(C)Cc2ccc(Cl)c(Cl)c2)cn1,"inconclusive [inhibitor, single point]",
CC(C)(C)CC(=O)Nc1nnc(SCC(=O)Nc2ccccc2F)s1,"inconclusive [inhibitor, single point]",
CC1CCN(S(=O)(=O)c2cccc(C(=O)Nc3nccs3)c2)CC1,inactive,
COc1cccc(NC(=O)NNC(=O)CN2C(=O)COc3ccccc32)c1,,inconclusive: -18.7% [inhibitor]
Cc1cc(OCC(=O)Nc2ccncc2)ccc1[N+](=O)[O-],active: 20.6 µM,
CCCCC[C@@H]1C=C(C(=O)O)[C@H](c2ccc(Br)cc2)N1S(=O)(=O)c1ccc(C)cc1,inactive,
C=C(C)COc1ccc(-c2nc(N)nc(C)c2-c2ccc(OC)cc2)c(O)c1,"inconclusive [inhibitor, single point]",
CN(C)C(=O)c1cccc(-c2cnc3c(NC=O)cc(-c4ccc(C(=O)N5CCOCC5)cc4)cn23)c1,"inconclusive [inhibitor, single point]",
C=C1C(=O)[C@]23C[C@H]1CC[C@H]2[C@]1(C)[C@@H](O)CC[C@@](C)(C(=O)O)[C@H]1C[C@@H]3O,active: 2.91 µM,
COCCN(C(=O)CSc1nc2ccccc2s1)c1c(N)n(Cc2ccccc2)c(=O)[nH]c1=O,inactive,
COC(=O)C1CCN(C(=O)/C=C/c2ccc(OC)cc2)CC1,,inconclusive: -30.7% [inhibitor]
COC(=O)[C@]12CCCCC=C1N(CCc1ccc(OC)c(OC)c1)C(=O)[C@H](CC(=O)N1CCN(C(=O)C3CC3)CC1)C2,inactive,
CCN(CC)S(=O)(=O)c1cccc(C(=O)NCC2CCCCC2)c1,active: 20.6 µM,
C=CCn1c(N2CCCCCC2)nc2c1c(=O)n(C)c(=O)n2C,"inconclusive [inhibitor, single point]",
COc1ccc(NS(=O)(=O)c2ccc3c(c2)N(C(C)=O)CCO3)cc1,"inconclusive [inhibitor, full curve, poor fit]",
Nc1nnc(CC(=O)N/N=C\c2cc([N+](=O)[O-])ccc2O)s1,"inconclusive [inhibitor, single point]",
O=C(NC1CC2CCC1C2)c1ccco1 (centres undefined),,inconclusive: -30.8% [inhibitor]
COc1ccc(NC(=O)CSc2ccc3nc(-c4ccccc4)cn3n2)c(OC)c1,active: 9.2 µM,
O=C(c1ccco1)N1CCCC(N2CCN(c3cccc(C(F)(F)F)c3)CC2)C1 (centres undefined),active: 20.6 µM,
